Laboratory results as given in PubChem BioAssay AID1346428 (National Center for Advancing Translational Sciences (NCATS), 2018).
Values joined by “and” are separate entries in the source; they are usually repeats but may differ in a detail not shown here. Equal values may be shown once. The whole screen tested about 48,000 compounds, of which about 1,200 (2.5%) were called active. About 2% were inconclusive and are not listed.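 How the source made its calls: active means activation of at least 60% and not above a set upper limit (about 1 call in 100 departs from these limits); inconclusive means activation of 40% to 60%, or above that upper limit; inactive means activation under 40%.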 Some of the results follow.

target: Probable G-protein coupled receptor 32 (Homo sapiens) (UniProt O75388); assay: qHTS for Agonists of Human Resolvin D1 Receptor DRV1; conditions: CHO-K1 GPR32 beta-arrestin PathHunter luminescence, 90 min; at 76.9 µM; active compounds read high; zero percent set by DMSO-only wells; further: 0% is about no effect
Summary of the method: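 GPR32 activation in stably transfected CHO-K1 cells, detected as beta-arrestin recruitment by enzyme-fragment complementation. Compound exposure: 90 min, 37 °C.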

Sequence of UniProt O75388 (O75388 whole entry, looked up, the tested form may be a part): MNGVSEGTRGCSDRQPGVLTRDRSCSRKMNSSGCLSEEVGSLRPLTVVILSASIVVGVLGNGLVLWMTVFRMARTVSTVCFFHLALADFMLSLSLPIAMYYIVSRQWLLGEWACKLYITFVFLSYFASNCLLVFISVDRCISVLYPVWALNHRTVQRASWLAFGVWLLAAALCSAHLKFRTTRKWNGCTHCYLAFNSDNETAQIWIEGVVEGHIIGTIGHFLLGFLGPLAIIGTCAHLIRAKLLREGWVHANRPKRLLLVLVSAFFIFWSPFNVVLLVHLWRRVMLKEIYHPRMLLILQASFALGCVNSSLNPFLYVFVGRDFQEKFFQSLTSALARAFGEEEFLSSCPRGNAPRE

activation, inactive:
COc1ccc(-n2nc(C(=O)N3CCCC(C)C3)c3c4ccccc4n(C)c3c2=O)cc1Cl (stereo not drawn) -8.47%
Cc1nn(C(=O)c2ccc(Cl)cc2)c(C)c1S(=O)(=O)N1CCCCCC1 18.5%
Cc1nn2c(C)c(C(=O)NCc3ccco3)cnc2c1-c1ccccc1 -19.7%
O=C(NC1CC(=O)N(c2ccccc2)C1)c1ccc(S(=O)(=O)N2CCCCC2)cc1 (stereo not drawn) -2.14%
CCN(CC)c1nc2ccccc2nc1C(=O)Nc1cc(OC)c(OC)c(OC)c1 -8.81%
Cc1ccc(N2CCn3c2nc2c3c(=O)n(CCCc3ccccc3)c(=O)n2C)cc1C -16.7%
CCOc1ccc(Cn2nnc(C(=O)Nc3cccc(SC)c3)c2N)cc1 -2.67%
Cc1nn(-c2ccc(F)cc2)c(-n2cccc2)c1C(=O)N1CCN(c2ccccc2)CC1 -4.65%
Cc1cc2nn(-c3ccccc3)nc2cc1NC(=O)COc1ccc(Cl)cc1 -4.6%
CC1CCC(NC(=O)CCc2cn(Cc3ccccc3Cl)c3ccccc23)CC1 (stereo not drawn) -29.1%
CCCN(CCC)C(=O)Cn1c(=O)n(-c2ccc(C)c(C)c2)c(=O)c2c3c(sc21)CCCCC3 -8.86%
Cc1cc(NC(=O)c2cc(-c3cccc(Cl)c3)on2)nn1Cc1ccc(Cl)cc1 3.05%
Cc1ccc(CN2C(=O)N(c3ccc(F)cc3)C(=O)C2CC(=O)Nc2ccc(Cl)cc2)cc1 (stereo not drawn) 4.32%
Cc1ncc(CO)c2c1Oc1nc(-c3ccc(F)cc3)nc(SCC(=O)N3CCCCC3)c1C2 -1.38%
O=C(NCCc1ccccc1)C1CCN(c2ncnc3c2nc2n3CCCCC2)CC1 -13.5%
COc1ccc(NC(=O)CSC2=Nc3ccccc3C3=NC(CCC(=O)NCc4cccs4)C(=O)N23)cc1 (stereo not drawn) -46%
Cc1ccc(C)c(Cn2c3ccccc3c3cnn(CC(=O)NC4CCC(C)CC4)c(=O)c32)c1 (stereo not drawn) -2.76%
COC(=O)CN1C(=O)CSc2ccc(S(=O)(=O)Nc3cccc(Br)c3)cc21 8.07%
Cc1ccc(NC(=O)CSc2nnc(-c3cc4occc4n3C)n2-c2ccccc2C)c(Cl)c1 -14.8%
CCOc1ccc(NC(=O)CSc2nc3c(oc4ccccc43)c(=O)n2-c2cc(C)cc(C)c2)cc1 -11%
CCCCOC(=O)/C(C#N)=C/c1ccc(-c2cccc(C(F)(F)F)c2)o1 -8.76%
CC1=C(C(=O)NCc2cccc(Br)c2)C2(CCCCC2)OC1=O 46.3%
CCOc1ccc(-c2nonc2NC(=O)c2ccco2)cc1 -8.95%
Cc1ccccc1CNC(=O)C1CCN(S(=O)(=O)Cc2ccccc2)CC1 -6.94%
COc1cc(/C=C/c2nc(C#N)c(N3CCCCC3)o2)cc(OC)c1OC -8.79%
Cc1ccc(C2c3[nH]c4ccccc4c3CCN2C(=O)c2ccccc2Br)cc1 (stereo not drawn) -30.8%
Cc1nnc(N2CCC(C(=O)Nc3ccc(F)cc3)CC2)c2nn(-c3ccc(Cl)cc3)c(C)c12 -28.1%
Cc1ccc(C(=O)Nc2c(-c3ccccc3)nc3ccccn23)cc1 -6.9%
CCCCOc1ccc(CNC(=O)Cc2ccc(NC(=O)N3CCCCc4ccccc43)cc2)cc1 -33.5%
COc1ccc(-c2nc(SCC(=O)N3CCN(c4ccc(F)cc4)CC3)n[nH]2)cc1 -13.6%
COc1ccc(CCNC(=O)c2ccc3c(c2)N(Cc2cc(C)ccc2C)C(=O)c2ccccc2S3=O)cc1OC (stereo not drawn) -16.3%
CCOC(=O)c1c(Nc2ccc(F)cc2)nnc(-c2ccccc2)c1-c1ccccc1 0.171%
CC(C)(C)OC(=O)N1CCC(c2c(C(=O)N3CCN(c4ccccc4)CC3)cnn2-c2ccccc2)CC1 -7.81%
CCn1c(=O)n(-c2ccc(F)cc2)c(=O)c2sc3ccccc3c21 -4.98%
Cc1cc(Br)ccc1NC(=O)Cn1cnc2sc(C)c(S(=O)(=O)N3CCN(C)CC3)c2c1=O -8.34%
COC(=O)c1sc2cccc(F)c2c1S(=O)(=O)Nc1ccc(N(C)C)cc1 22.4%
CCCN(C(=O)c1cc2ccc3cccnc3c2[nH]1)c1ccc(F)cc1 -17.1%
O=C(c1ccccc1Cl)N(Cc1ccco1)c1ccccn1 21%
CC(=O)N1CCC2(CC1)OC(=O)C(C)=C2C(=O)Nc1cc(C)ccc1C -10.2%
CCOC(=O)c1cc(-c2ccc(C)cc2)n(CC(=O)Nc2ccccc2F)c1C -1.4%
CC1=C(C(=O)O)N2C(=O)[C@@H](NC(=O)C(N)c3ccccc3)[C@H]2SC1 (stereo partly drawn) 3.49%
CC(=O)Nc1ccc(-n2c(CCC(=O)O)ccc2-c2ccc(Br)cc2)cc1 20.4%
COc1ccc(Cl)cc1NC(=O)Cn1c(=O)n(Cc2cccs2)c(=O)c2cccnc21 -3.62%
Cc1nc2cccnc2n1C1CCN(S(=O)(=O)N(C)C)CC1 4.95%
COc1ccc(CNC(=O)Cc2c(C)c3c(cc(C)c4c(C)coc43)oc2=O)cc1OC -12.7%
CCc1ccc(-c2[nH]nc3nc(-c4ccc(OC)cc4)cc(C(=O)NCCCOC)c23)cc1 -0.331%
COC(=O)c1ccccc1NC(=O)c1ccc(COc2cc(C)cc(C)c2)o1 -5.93%
COc1ccc(CCCc2nnc(SCC(=O)Nc3cc(C)ccc3C)o2)cc1 -0.262%
COc1ccc(Br)c2c1-c1nc(NC(=O)c3ccccc3F)sc1C2 12.2%
CCCC(=O)Nc1ccc(O)c(C(C)=O)c1 10.3%
Cc1nc2ccc(S(=O)(=O)N(CC(=O)Nc3cccc(Cl)c3)Cc3ccccc3)cc2s1 -23.1%
Cc1nn(CC(=O)NCc2ccc(N(C)C)cc2)c(=O)c2c(C)n(-c3ccc(Cl)cc3)nc12 -11.8%
CCOc1ccc(NC(=O)CCn2c(=O)c3cccn3c3cccnc32)cc1 -15.6%
CCCN(CCC)CCCNC(=O)c1cn(CC)c2ccc(S(=O)(=O)N(C)C3CCCCC3)cc2c1=O -38.6%
CCc1ccc(OCc2cc(=O)n3c4c(sc3n2)CCCC4)cc1 12.7%
Cc1cc(N)c2ccccc2[n+]1CCCCCCCCCC[n+]1c(C)cc(N)c2ccccc21 -14.3%
O=C(C1CCC1)N1CCCc2cc(S(=O)(=O)N3CCN(c4ccccc4)CC3)ccc21 -23.4%
COc1cccc(N2CCN(C(=O)C3Cc4ccccc4N3C(C)=O)CC2)c1 (stereo not drawn) 36.4%
CCOC(=O)N1CCc2c(sc(NCc3cccc(F)c3)c2C(=O)Nc2ccc(OC)cc2OC)C1 -11.6%
CCC(=O)Nc1ccccc1-c1nc2ccccc2n(CC(=O)c2ccc(Cl)cc2)c1=O -14.8%
CC(C)OC(=O)C(C(=O)C(F)(F)F)c1cc(NS(=O)(=O)c2ccc3c4c(cccc24)C(=O)N3)ccc1O (stereo not drawn) 11.8%
Cc1cccc(-c2nc3ccccc3n2Cc2ccccc2)c1 -23.1%
CCNc1ncnc2c1nnn2C -3.28%
CCOC(=O)c1c(C)[nH]c(CCC(=O)Nc2c(C)cccc2CC)c1C -10.7%
Cc1ccc(S(=O)(=O)c2nnn3c2nc(NC(C)C)c2sccc23)cc1 -14.7%
COc1ccc2c(Sc3ccc(C)cc3)c(C(=O)NCc3ccc(F)cc3)[nH]c2c1 -4.06%
CN(C)C(=O)Oc1ccc[n+](C)c1 -0.56% and -0.966%
Nc1c2c(nc3ccccc13)CCCC2O (stereo not drawn) -8.95% and 4.67%
COc1ccccc1NC(=O)C1=C(C)Nc2nc(CCCO)nn2C1c1cccc(O)c1 (stereo not drawn) -4.63%
O=C(CCCn1c(=O)c2ccccc2n(Cc2cccc(Cl)c2)c1=O)NCCc1ccc(Cl)cc1 -20.3%
Cc1ccc(S(=O)(=O)N2CCCc3cc(NS(=O)(=O)c4cc(F)ccc4F)ccc32)cc1 -1.04%
O=C(CSc1nc2c(oc3ccccc32)c(=O)n1-c1ccccc1)Nc1ccccc1F -26.9%
CC(C)c1ccc(NC(=O)CC2NCCNC2=O)cc1 (stereo not drawn) -8.39%
CCOC(=O)c1ccc(N2C(=O)c3n[nH]c(-c4ccco4)c3C2c2ccc(OCC)cc2)cc1 (stereo not drawn) -24.6%
CCCC(=O)Nc1cc(C(=O)NCc2ccccc2)ccc1S(=O)(=O)c1ccc(Cl)cc1 -6.5%
Cn1c(=O)c(=O)n(C)c2cc(S(=O)(=O)N3CCN(c4ccc(F)cc4)CC3)ccc21 -4.47%
COc1cc(C2CC(=O)c3cnc(N4CCN(CCO)CC4)nc3C2)cc(OC)c1OC (stereo not drawn) 2.36%
O=C(Cn1cc(S(=O)(=O)N2CCCC2)c(S(=O)(=O)N2CCCC2)c1)Nc1ccccc1 -5.71%
CCC(C(=O)OCc1cc(=O)n2nc(C)sc2n1)c1ccccc1 (stereo not drawn) -15.4%
Cc1cccc(-c2noc(CN(C3CCCCC3)S(=O)(=O)c3ccc(F)cc3)n2)c1 -30.4%
COc1ccc(OC)c(NC(=O)c2c(NCc3sccc3C)sc3c2CCCCC3)c1 -12.7%
COc1ccc2c(c1)-c1nc(NC(=O)c3ccc(OC)c(Br)c3)sc1CC2 -0.193%
COc1ccc(NC(=O)CSc2nc3ccccc3nc2N2CCC(C)CC2)cc1 -43.7%
